Variants at the background level are over-represented here.

B1: TPR 5TU (parent)
chain: GGAUCUUCUCGAUCUAACAAAAAAGACAAAUCUGCCACAAAGCUUGAGAGCAUCUUCGGAUGCAGAGGCGGCAGCCUUCGGUGGCGCGAUAGCGCCAACGUUCUCAACUAUGACACGCAAAACGCGUGCUCCGUUGAAUGGAGUUUAUCAUG

The variants in this series derive from B1. The series can be described thus: polymerase ribozyme fitness, log enrichment relative to wild type (log ratio); higher = more active; in vitro selection for triplet polymerase activity. Put shortly:
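One round of in vitro selection, in triplicate, was applied to PCR-built, transcribed mutant libraries of each subunit of a heterodimeric triplet polymerase ribozyme. The steps were annealing with a biotinylated primer, partner subunit and triplets, incubation frozen at −7 °C, gel excision of extended constructs, streptavidin-bead capture and RT-PCR. Fitness is the logarithm, base 2, of genotype enrichment over wild-type enrichment from inverse-variance-weighted replicate averages of Illumina-sequenced inputs and outputs, keeping genotypes with ≥10 input reads and ≥1 read per output.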
Consider GGAUCUUCUCGAUCUAACAAAAAAGACAAAUCUGCCACACAGCUUGACAGCAUCUUCGGAUGCAGAGGCGGCAGCCUUCGUUGGAGCGAUAGCGCCAACGUUCUCAACUAUGACACGCAAAACGCGUGCUCCGUUGAAUGGAGUUUAUCAUG, for which the “polymerase ribozyme fitness (log ratio)” value is -1.52.
Turning to GGAUCUUCUCGAUCUAACAAAAAAGACAAAUCUGCCACACAGCUUGAGAGCAUCUUCGGAUGCAGAGGCGGCAGCCUUCGGUGGCGCGAUAGCGCCAAUGUUCUCAACUAUGACACGCAAAACGCGUGCUCCGUUGAAUGGAGUUUAUCAUG, the “polymerase ribozyme fitness (log ratio)” value stood at 0.519.
As for GGAUCUUCUCGAUCUAACAAAAAAGACAAAUCUGCCACACAGCUUGAGAGCAUCUUCGGAUGCAGAGGCGGCAGCCUUCGGUGGCGCGAUAGCGCGAACGUUCUUAACCAUGACACGCAAAACGCGUGCUCCGUAGAAUGGAGUUUAUCAUG, the figure is no more than -4.2.
On to GGAUCUUCUCGAUCUAACAAAAAAGACAAAUCUGCCACACAGCUUGAGAGCAUCUUCGGAUGCAGAGGCGGCAGCCUUCGGUGGCGCGAUAGCGUCAACGUUCUCAACAAUGGCACGCAAAACGCGUGCUCCGUUGAAUGGAGUUUAUCAUG, for which the “polymerase ribozyme fitness (log ratio)” value is no more than -4.2.
For GGAUCUUCUCGAUCUAACAAAAAAGACAAAUCUGCCACACAGCUUGAGAGCAUAUUCGGAUGCAGAGGCGGCAGCCUUCGGUGGCGCGUUAGCUCCAACGUUCUCAACUAUGACACGCAAAACGCGUGCUCCGUUGAAUGGAGUUUAUCAUG, the “polymerase ribozyme fitness (log ratio)” value is -2.57.
GGAUCUUCUCGAUCUAACAAAAAAGACAAAUCUGCCACACAGCUUGAGAACAUCUUCGGAUGCAGAGGAGGCAGCCUUCGGUGGCGCGAUAGCGACAACGUUCUCAACUAUGACACGCAAAACGCGUGCUCCGUUGAAUGGAGUUUAUCAUG: the “polymerase ribozyme fitness (log ratio)” value is no more than -4.2.
Consider GGAUCUUCUCGAUCUAACAAAAAAGACAAAUCUGCCACACAGCUUGAGAGCAUCUUCGGAUGCAGAGGGGGCAGCCUUCAGUGGCGCGAUAGCGCCAACGUUCUCAACUAUGACACGCAAAACGCGUGCUCCGUUGAAUGGAGUUUAUCAUG, for which the “polymerase ribozyme fitness (log ratio)” value is -0.716.
As for GGAUCUUCUCGAUCUAACAAAAAAGACAAAUCUGCCACACAGCUUGAGAGCAUCUUCGGAUGCAGAGGCGGCAGCCUUCGGUGGUGCGAUAGCGCCAACGUUCUCAACUAUGACACGCAAAACGCGUGCUCCGUUGAAUGGAGUUUAUCAUG, the “polymerase ribozyme fitness (log ratio)” value was -0.549.
With GGAUCUUCUCGAUCUAACAAAAAAGACAAAUCUGCCACACAGCUUGAGAGCAUCUUCGGAUGCAGAGGCGGCAGCCUUCGGUGGGGCGAUAGCGCCAACGUUCUCAACUAUGACACGCAAAACGCGUGCUCCGUUGAAUGGAGUUUAUCAUG, the “polymerase ribozyme fitness (log ratio)” value is -1.95.
As for GGAUCUUCUCGAUCUAACAAAAAAGACAAAUCUGCCACACAGCUUGAUAGCAUCUUCGGAUGCAGAGGCGGCAGCCUUUGGUGGCGCGAUAGUGCCAACGUUGUCAACUAUGACACGCAAAACGCGUGCUCCGUUGAAUGGAGUUUAUCAUG, the figure is no more than -4.2; as for GGAUCUUCUCGAUCUAACAAAAAAGACAAAUCUGCCACACAGCUUGAGAGCAUGUUCGGAUGCAGAGGCGGCAGCCUUCGGUGGCGCGAUAGAGCCAACGUUCUCAACUAUGAUACGCAAAACGCGUGCUCCGUUGAAUGGAGUUUAUCAUG, no more than -4.2; as for GGAUCUUCUCGAUCUAACAAAAAAGACAAAUCUGCCACACAGCUUGAGAGCAUUUUCGGAUGCAGAGGCGGCAGCCUUCGGUGGCACGAUUGCGCCAACGGUCUCUACUAUGACACGCAAAACGCGUGCUCCGUUGAAUGGAGUUUAUCAUG, no more than -4.2.
To GGAUCUUCUCGAUCUAACAAAAAAGACAAAUCUGCCACACAGCUUGAGAGCAUCUUCGGAUGCAGAGGCGGCAGCCUUCGGUGGCGCGAUAGCGCCAACGUUCUCAACUAUGACACGCAAAACGAGUGCUCCGUUGAAUGGAGUUUAUCAUG belongs -0.0259; to GGAUCUUCUCGAUCUAACAAAAAAGACAAAUCUGCCACACAGCUUGAGAGCAUCUUUGGAUGCAGAGGCGGCAGCCUUCGGUGGCGCGAUAGCGCCAACGUUCUCAACAAUGACACGCAAAACGCGUGCGCCGUUGAAUGGAGUUUAUCAUG, no more than -4.2.
Regarding GGAUCUUCUCGAUCUAACAAAAAAGACAAAUCUGCCACACAGCUUGAGAGCAUCUUCGGAUGCAGAGGCGGCAGCCUUCGGUGGCGAGAUAGCGCCAACGUUCUCAACUAUGACACGCAAAACGCGUUCUCCGUUGAAUGGAGUUUAUCAUG, the “polymerase ribozyme fitness (log ratio)” value is no more than -4.2.
With GGAUCUUCUCGAUCUAACAAAAAAGACAAAUCUGCCACACAGCUUGAGAGCAUCUUCGGAUGCAGAGGCGGCAGCCUUCGGUGGAGCGAUAUCGCCAACGUUCUCAACUAUGACACGCCAAACGCGUGCUCCGUUGAAUGGAGUUUCUCAUG, the “polymerase ribozyme fitness (log ratio)” value is no more than -4.2.
To GGAUCUUCUCGAUCUAACAAAAAAGACAAAUCUGCCACACAGCUUGAGAGCAUCUUCGGAUGCAGAGGCGGCAGCCUUCGGUGGCGUGAUAGCGCCAACGUUCUCAACUAUGACACCCAAAACGCGUGCUCCGUUGAAUGGAGUUUAUCAUG belongs -0.313; to GGAUCUUCUCGAUCUAACAAAAAAGACAAAUCUGCCACACAGCUUGAGAGCAUAUUCGGGUGCAGAGGCGGCAGCCUUCGGUGGCGCGAUAGCGCCAACGUUCUCAACUAUGCCACGCAAAACGCGUGCUCCGUUAAAUGGAGUUUCGCAUG, no more than -4.2.
To GGAUCUUCUCGAUCUAACAAAAAAGACAAAUCUGCCACACAGCUUGAGAGCAUCUUCGGAUGCAGAGGCGGCAGCCUUCGGUGGCGCGAUAGGGCCACCGUUCUCAACUAUGACACGCAAAACGUGUGCUCCGUUGAAUGGAGUUUAUCAUG belongs no more than -4.2.

(Values after the RNAGym collection of RNA variant scans (doi:10.1073/pnas.2313332121).)
